Results reported in PubChem BioAssay AID488969 (Vanderbilt High Throughput Screening Facility, 2010).
Whole data set: some 110,000 compounds, median “z-score” near -0.1, cut for the highest 2% near 2. Some of the results follow. Calls of active or inactive are those of the source.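 Rule for the calls: active = z-score in the third read window above 3 or below -3; inactive = the rest.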

These compounds were tested against Metabotropic glutamate receptor 8 (Rattus norvegicus) (UniProt P70579) (assay: rat mGluR8 modulators via GIRK flux, primary screen, cell-based, thallium flux, HTS (AID 488969)). Details: HEK293 rat mGluR8, GIRK (G protein-gated inwardly rectifying potassium channel) thallium flux, FluoZin2; at 10 µM; stronger effect = higher value; submaximal glutamate (EC20) added with thallium.
Chain of UniProt P70579 (P70579 whole entry, looked up): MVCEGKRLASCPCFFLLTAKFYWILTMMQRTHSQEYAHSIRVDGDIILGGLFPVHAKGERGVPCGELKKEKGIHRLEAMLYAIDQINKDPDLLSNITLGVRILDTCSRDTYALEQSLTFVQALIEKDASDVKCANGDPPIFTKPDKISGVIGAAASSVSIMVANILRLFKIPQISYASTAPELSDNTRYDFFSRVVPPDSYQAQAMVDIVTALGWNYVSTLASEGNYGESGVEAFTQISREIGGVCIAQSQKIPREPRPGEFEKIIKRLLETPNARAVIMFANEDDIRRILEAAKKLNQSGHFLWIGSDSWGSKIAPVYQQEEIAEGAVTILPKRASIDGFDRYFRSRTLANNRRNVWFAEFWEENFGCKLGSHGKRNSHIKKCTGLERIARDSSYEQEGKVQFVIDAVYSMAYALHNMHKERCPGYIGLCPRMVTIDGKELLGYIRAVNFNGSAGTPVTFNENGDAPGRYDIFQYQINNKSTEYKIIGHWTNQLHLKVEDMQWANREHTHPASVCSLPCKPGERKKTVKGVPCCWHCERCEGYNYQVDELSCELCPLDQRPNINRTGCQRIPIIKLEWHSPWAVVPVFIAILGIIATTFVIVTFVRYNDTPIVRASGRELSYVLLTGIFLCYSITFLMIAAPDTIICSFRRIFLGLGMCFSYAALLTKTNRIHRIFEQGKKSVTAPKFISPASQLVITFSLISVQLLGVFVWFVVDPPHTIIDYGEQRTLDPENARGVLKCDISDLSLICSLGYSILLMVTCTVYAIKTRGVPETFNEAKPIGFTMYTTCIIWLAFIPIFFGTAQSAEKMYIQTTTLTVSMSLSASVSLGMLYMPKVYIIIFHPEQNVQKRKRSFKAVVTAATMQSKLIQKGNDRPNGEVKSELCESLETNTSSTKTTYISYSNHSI
With Cc1occc1C(=O)NC(C)c1ccc2c(c1)OCO2 (stereo unspecified) the z-score was -0.214.
For CCOc1cccc(C(=O)Nc2nc(-c3ccc(S(=O)(=O)N4CCOCC4)cc3)cs2)c1, the z-score was -0.123.
Work on O=C(NCC1CCCO1)c1cc(-c2ccncc2)nc2ccc(S(=O)(=O)N3CCOCC3)cc12 (stereo unspecified) yielded a z-score of 0.221.
Compound CCCN(CCC)c1nc(Cl)nc(NCc2ccco2)n1 has a z-score of 0.493.
In the case of O=C(/C=C/c1ccc(Cl)cc1Cl)Nc1ccc(CN2CCOCC2)cc1, the z-score is reported as 0.397.
COc1ccc(CC(=O)Nc2ccc(-c3nnc(-c4ccccc4)o3)cc2)cc1OC showed a z-score of -0.886.
In the case of O=C1Nc2ccccc2OC1CC(=O)N1CCOCC1 (stereo unspecified), the z-score is reported as 1.04.
For N#C/C(=C\c1cccn1-c1ccccc1)C(=O)NC1CCCCC1, the z-score was -0.217.
CCOC(=O)C(Sc1ncc(C#N)c(N)n1)C(C)C (stereo unspecified) was tested, and the z-score was -0.396.
CCOC(=O)N1CCN(C(=O)c2ccc3nc(C)sc3c2)CC1 was tested, and the z-score was -0.0643.
Work on COc1ccccc1C(=O)N/C(=C/c1ccc(Br)cc1)C(=O)NCCO yielded a z-score of -0.435.
CCc1ccc2[nH]c(=O)c(CN(Cc3ccccc3OC)Cc3nnnn3Cc3ccco3)cc2c1 was tested, and the z-score was -0.963.
For COC(=O)c1c(-c2cccc(C)c2)csc1N, the z-score was -0.0967.
CN(c1ccccc1C(=O)Nc1ccc(S(=O)(=O)N2CCOCC2)cc1)S(=O)(=O)c1ccccc1 was tested, and the z-score was -0.363.
With COC(=O)c1ccc(C(=O)Nc2cc(Cl)ccc2Cl)cc1NC(=O)c1ccccc1C the z-score was 0.0158.
With CC1(C)Oc2ccc3ccc(=O)oc3c2/C(=C/N)C1=O the z-score was 0.0917.
Nc1nc2ccc(S(=O)(=O)c3ccc4nc(N)sc4c3)cc2s1 was tested, and the z-score was -0.885.
In the case of COc1ccc(/C=C(/CC(=O)Nc2ccccc2)c2nc3ccccc3s2)cc1, the z-score is reported as -0.206.
With COC(=O)c1[nH]c(C)c(/C(O)=C2\C(=O)C(=O)N(CCN3CCOCC3)C2c2cccnc2)c1C (stereo unspecified) the z-score was 0.192.
Work on CCN(CC)C(=O)c1sc(NC(=O)c2cccnc2)c(C(=O)OC)c1C yielded a z-score of -0.202.
O=C(OCCN=C1NS(=O)(=O)c2ccccc21)c1cccnc1 showed a z-score of 0.1.
Cc1nn2c(C)nc3sc4c(c3c2nc1=O)CC(C)(C)OC4 showed a z-score of -0.0171.
With O=[N+]([O-])c1ccc(N2CCCC2)cc1NCc1ccccc1 the z-score was -0.6.
With CC1CCN(Cc2ccc(-c3nn[nH]n3)cc2)CC1 the z-score was 0.274.
Work on COc1ccc(Cc2nc(N)nc(N)n2)cc1 yielded a z-score of -0.931.
For N#C/C(=N\Nc1ccc(S(=O)(=O)N2CCCCC2)cc1)C(N)=S, the z-score was 0.742.
CCN(CC)c1ccc(C=N/C(C#N)=C(\N)C#N)cc1 was tested, and the z-score was -0.226.
Work on CC(=O)NC1(C(Cl)(Cl)Cl)Oc2ccccc2O1 yielded a z-score of -0.0777.
Compound N=c1sccn1CC(=O)Nc1cc(Cl)ccc1Oc1ccccc1 has a z-score of 1.02.
In the case of CC1CCN(C(=O)c2ccc3c(c2NCCO)C(=O)c2ccccc2C3=O)CC1, the z-score is reported as -0.206.
COc1cc(S(=O)(=O)N2CCOCC2)ccc1NC(=O)COC(=O)C12CC3CC(CC(C3)C1)C2 was tested, and the z-score was -0.0192.
Compound CCOC(=O)C1=C(Cn2cnc3ccccc32)NC(=O)NC1c1ccc(Cl)cc1 (stereo unspecified) has a z-score of -0.225.
In the case of COC(=O)c1ccc(COc2ccccc2/C=N/NS(=O)(=O)c2ccc(C)cc2)cc1, the z-score is reported as 0.41.
For O=C(Nc1ccncc1)c1ccc2c(c1)C(=O)N(CC1CCCO1)C2=O (stereo unspecified), the z-score was -0.193.
With O=C1N=C(N2CCCC2)S/C1=C\c1cccc(Br)c1 the z-score was -0.485.
For Cc1ccc(NS(=O)(=O)c2ccc(Cl)c(C(=O)O)c2)cc1S(=O)(=O)N1CCOCC1, the z-score was -0.00682.
CCn1c2ccccc2c2nn(C)c(=N)nc21 showed a z-score of 0.551.
Compound Cc1ccc(NC(=O)NCC(c2cccnc2)N2CCOCC2)cc1 (stereo unspecified) has a z-score of -0.0311.
With COc1ccccc1-c1c(C)nn2c(C)c(C(C)=O)cnc12 the z-score was 0.0641.
COC(=O)C1=C(C)N(C)C(=O)NC1c1cc(Cl)cc(Cl)c1OC (stereo unspecified) was tested, and the z-score was -0.602.
COC(=O)c1cc2sc(Cl)cc2n1Cc1nc(-c2ccccc2)oc1C was tested, and the z-score was 0.434.
For CC(=O)NC(CCS(C)(=O)=O)C(=O)Nc1cccc(C(C)=O)c1 (stereo unspecified), the z-score was -0.0267.
Cc1ccc2cc(CN(CC3CCCO3)S(=O)(=O)c3c(C)ccc4nsnc34)c(=O)[nH]c2c1 (stereo unspecified) gave a z-score of -0.154.
S=c1[nH]nc(-c2cccnc2)n1/N=C/C=C/c1ccccc1 gave a z-score of 0.244.
For O=C(NCc1cccs1)C1CCCN(S(=O)(=O)c2cccc3cccnc23)C1 (stereo unspecified), the z-score was -0.302.
With Cc1cccc(/C(N)=N/OC(=O)c2ccc(F)cc2)c1 the z-score was 0.686.
With O=C(Nc1ccc(N2CCOCC2)c(Cl)c1)c1cc(F)c(F)cc1Cl the z-score was 0.879.
COc1ccc(CCNC2CC(=O)N(CCc3ccccc3)C2=O)cc1OC (stereo unspecified) was tested, and the z-score was 0.178.
Compound c1ccc(-c2nc3c(ccc4ccccc43)[nH]2)nc1 has a z-score of -1.42.
Work on CCOC(=O)C1=C(CSc2nc(-c3ccccc3)ccc2C#N)OC(N)=C(C#N)C1c1ccc(OC)cc1 (stereo unspecified) yielded a z-score of 0.0604.
CCOCCc1nnc(NC(=O)c2cccc(F)c2)s1 showed a z-score of -0.243.
Compound COc1ccc2c(OC)cc(-c3ccccc3)nc2c1 has a z-score of -1.03.
Compound CN(C)CCNC(=S)Nc1cccc(Cl)c1 has a z-score of 0.0585.
Cc1cc(N2C(=O)C3C4C=CC(C4)C3C2=O)no1 (stereo unspecified) showed a z-score of 0.639.
Compound CC(C)(C)NC(=O)c1cc(Cl)ccc1[N+](=O)[O-] has a z-score of -0.172.
Compound O=C(N/N=C/C=C/c1ccco1)/C(=C/c1ccccc1)NC(=O)c1ccccc1 has a z-score of -0.138.
In the case of CC1(C)CN(c2ccccc2)N(C(=O)c2ccc(F)cc2)C1=O, the z-score is reported as -0.346.
In the case of Cc1ccc(N2C(=O)CC(N(CCc3ccccc3)C(=S)Nc3ccc(N(C)C)cc3)C2=O)cc1 (stereo unspecified), the z-score is reported as -0.0866.
Work on Cc1nn(-c2cccc(Cl)c2)c2c1C(c1cccnc1)C(C#N)=C(N)O2 (stereo unspecified) yielded a z-score of 0.0248.
For COC1(C)CC2C(CC1OC(=O)c1cc([N+](=O)[O-])cc([N+](=O)[O-])c1)C2(C)C (stereo unspecified), the z-score was 0.0533.
O=C(CCc1n[nH]c(=O)[nH]c1=O)N1CCOCC1 gave a z-score of -0.0563.
Compound CC1CCN(S(=O)(=O)N2CCC(C(=O)NCCN3CCOCC3)CC2)CC1 has a z-score of -0.151.
CC(C)C(=O)Nc1cccc(NC(=O)c2cccnc2)c1 showed a z-score of 0.0323.
With Cc1ccc(S(=O)(=O)c2nc(S(C)(=O)=O)sc2NCC2CCCO2)cc1 (stereo unspecified) the z-score was 0.195.
CCCCOC(=O)Cc1c(O)c2ccccc2[nH]c1=O was tested, and the z-score was 0.389.
CCc1cccc2c(C(=O)COC(=O)c3cccc(S(=O)(=O)N(C)C4CCCCC4)c3)c[nH]c12 was tested, and the z-score was 0.724.
With CCn1c(SCC(=O)N2CCN(c3ccccc3)CC2)nnc1-c1cc2cc(Cl)ccc2o1 the z-score was -0.00365.
With O=[N+]([O-])c1cc(Br)c(O)c(/C=N/Nc2nnnn2-c2cccc3ccccc23)c1 the z-score was -1.
Work on Cc1ccc(S(=O)(=O)NCC(=O)OCC(=O)Nc2ccccc2OC(F)F)cc1 yielded a z-score of -0.526.
Work on Cc1nc(C)n(CC(O)COc2ccc3c(c2)CCC3)n1 (stereo unspecified) yielded a z-score of 0.329.
In the case of Cc1ccc(NC(=O)/C(=C/c2cccs2)NC(=O)c2ccco2)cc1, the z-score is reported as -0.139.
For COC(=O)c1ccc(C2C(Oc3ccc(OC)cc3)C(=O)N2CCc2ccc(OC)c(OC)c2)cc1 (stereo unspecified), the z-score was -0.234.
Work on CC(Cc1cccs1)NC(=O)Nc1cccc(Cl)c1 (stereo unspecified) yielded a z-score of -0.475.
O=C(CC1Oc2ccccc2NC1=O)NCCCN1CCOCC1 (stereo unspecified) gave a z-score of -0.213.
Work on O=C(CNC(c1ccccc1)c1ccccc1)Nc1ccc(F)cc1 yielded a z-score of -0.356.
COc1ccc2c(c1)[nH]c1c(=O)n(CCN3CCCC3)cnc12 gave a z-score of 0.615.
Work on Cn1c(=O)c2cn3ncccc3c2n(C)c1=O yielded a z-score of -0.362.
In the case of CCOC(=O)CN1CC23C=CC(O2)C(C(=O)NCCc2ccccc2)C3C1=O (stereo unspecified), the z-score is reported as 0.00167.
Cc1cc(Nc2ccc3ccccc3c2)n2ncnc2n1 was tested, and the z-score was -0.324.
For N#Cc1c(-c2ccccc2)nc(-c2ccccc2)nc1N1CCOCC1, the z-score was 0.64.
Cc1ccc(N=Cc2ccc(O)cc2O)cc1F was tested, and the z-score was -0.104.
For CCCNC(=O)c1ccc(CN2CCc3ccccc3C2)cc1, the z-score was -0.12.
Work on CCCCNC(=O)Cc1coc2ccc3ccccc3c12 yielded a z-score of 0.454.
COc1cc(NC2c3ccccc3C(=O)N2c2ccc(C)cn2)cc(OC)c1OC (stereo unspecified) gave a z-score of -0.25.
Work on CC/C(=C\C(=O)c1ccncc1)Nc1ccc(Br)cc1 yielded a z-score of -0.23.
Cc1ccccc1OCC(=O)Nc1ccc(C(N)=O)cc1 gave a z-score of -0.383.
CC(C)(C)C(=O)CSc1nnc(-c2cccs2)n1CC1CCCO1 (stereo unspecified) showed a z-score of -0.131.
With CCOc1cc(C2NC(=O)NC(C)=C2C(C)=O)cc(Cl)c1OCC(=O)O (stereo unspecified) the z-score was 0.0829.
COCCNC(=S)c1ccc(OC)cc1 showed a z-score of 0.239.
Cc1ccc(-c2nnc3n2N=C(c2ccccc2Br)CS3)cc1 was tested, and the z-score was -0.151.
With COc1ccc(CCNc2nc(C)nc3c2oc2ccccc23)cc1OC the z-score was -0.784.
COc1ccc(NC(C)=O)cc1NC(=O)CN1CCN(CC(=O)Nc2ccc(Cl)cc2)CC1 showed a z-score of -0.613.
With CCOc1ccc(NCc2nnc(SCC(=O)Nc3cc(C)on3)n2-c2ccccc2OC)cc1 the z-score was -0.159.
CCN(CC)S(=O)(=O)c1c(Br)cc(C)cc1Br was tested, and the z-score was 0.202.
For O=c1c2ccccc2nc(SCc2cn3ccsc3n2)n1-c1ccc(F)cc1, the z-score was active: -3.79.
Work on Cc1csc(NC(=O)CSc2nnc(NC(=O)C3CC(=O)N(c4ccccc4)C3)s2)n1 (stereo unspecified) yielded a z-score of -0.351.
c1ccc(N2CCN(c3nc4ccccc4n4cnnc34)CC2)cc1 gave a z-score of -0.281.
In the case of O=C(CO/N=C/c1ccccc1O)N1CCc2ccccc21, the z-score is reported as -0.0476.
In the case of CC(=O)c1cccc(NC(=S)NC2CC2)c1, the z-score is reported as -0.023.
CCCC(=O)OCC(=O)Nc1ccccc1Sc1ccccc1 showed a z-score of -0.604.
Work on Cc1ccccc1OCc1n[nH]c(=S)n1Cc1ccccc1 yielded a z-score of 0.94.
Clc1ccc2c(c1)C1=C(C(c3ccncc3)O2)C(c2ccc(Br)cc2)n2ncnc2N1 (stereo unspecified) was tested, and the z-score was -0.206.
Compound COc1cc(NC(=O)c2ccco2)c(OC)cc1NC(=O)CCC(=O)Nc1cccc(C)c1C has a z-score of -0.133.
In the case of CCCCOC(=O)c1ccc(NC(=O)c2cnccn2)cc1, the z-score is reported as 0.00424.
In the case of COc1ccc(C(O)c2nccn2Cc2ccccc2)cc1 (stereo unspecified), the z-score is reported as -0.225.
With CC(=O)Nc1ccc(-c2cc(-c3ccccc3)nc(-c3ccccc3)n2)cc1 the z-score was -0.205.
For C=CCn1cc([N+](=O)[O-])nc1C, the z-score was -0.339.
For O=C(CCC1CCCCC1=O)c1ccccc1 (stereo unspecified), the z-score was 0.0492.
With COc1ccc(Cl)cc1NC(=O)CCc1ccccc1 the z-score was -0.364.
Work on CCn1cc(C(=O)O)c(=O)c2cc(OC)ccc21 yielded a z-score of 0.0453.
For CN(CC(=O)Nc1c(Cl)cccc1Cl)C(=O)CCCN1C(=O)c2ccccc2C1=O, the z-score was -0.0272.
